Experimental data: publication PMC4336329 (PLoS ONE, 2015)
About 2,200 (0.71%) of roughly 310,000 compounds showed an effect of 50% or more. Effects have a minus sign here. Some of the results follow.

These compounds were tested against human ether-à-go-go-related gene (hERG) potassium channel (human, UniProt Q12809) (assay: primary screen, population patch clamp on CHO cells stably expressing hERG).
Sequence of human ether-à-go-go-related gene (hERG) potassium channel (Q12809 whole entry, looked up): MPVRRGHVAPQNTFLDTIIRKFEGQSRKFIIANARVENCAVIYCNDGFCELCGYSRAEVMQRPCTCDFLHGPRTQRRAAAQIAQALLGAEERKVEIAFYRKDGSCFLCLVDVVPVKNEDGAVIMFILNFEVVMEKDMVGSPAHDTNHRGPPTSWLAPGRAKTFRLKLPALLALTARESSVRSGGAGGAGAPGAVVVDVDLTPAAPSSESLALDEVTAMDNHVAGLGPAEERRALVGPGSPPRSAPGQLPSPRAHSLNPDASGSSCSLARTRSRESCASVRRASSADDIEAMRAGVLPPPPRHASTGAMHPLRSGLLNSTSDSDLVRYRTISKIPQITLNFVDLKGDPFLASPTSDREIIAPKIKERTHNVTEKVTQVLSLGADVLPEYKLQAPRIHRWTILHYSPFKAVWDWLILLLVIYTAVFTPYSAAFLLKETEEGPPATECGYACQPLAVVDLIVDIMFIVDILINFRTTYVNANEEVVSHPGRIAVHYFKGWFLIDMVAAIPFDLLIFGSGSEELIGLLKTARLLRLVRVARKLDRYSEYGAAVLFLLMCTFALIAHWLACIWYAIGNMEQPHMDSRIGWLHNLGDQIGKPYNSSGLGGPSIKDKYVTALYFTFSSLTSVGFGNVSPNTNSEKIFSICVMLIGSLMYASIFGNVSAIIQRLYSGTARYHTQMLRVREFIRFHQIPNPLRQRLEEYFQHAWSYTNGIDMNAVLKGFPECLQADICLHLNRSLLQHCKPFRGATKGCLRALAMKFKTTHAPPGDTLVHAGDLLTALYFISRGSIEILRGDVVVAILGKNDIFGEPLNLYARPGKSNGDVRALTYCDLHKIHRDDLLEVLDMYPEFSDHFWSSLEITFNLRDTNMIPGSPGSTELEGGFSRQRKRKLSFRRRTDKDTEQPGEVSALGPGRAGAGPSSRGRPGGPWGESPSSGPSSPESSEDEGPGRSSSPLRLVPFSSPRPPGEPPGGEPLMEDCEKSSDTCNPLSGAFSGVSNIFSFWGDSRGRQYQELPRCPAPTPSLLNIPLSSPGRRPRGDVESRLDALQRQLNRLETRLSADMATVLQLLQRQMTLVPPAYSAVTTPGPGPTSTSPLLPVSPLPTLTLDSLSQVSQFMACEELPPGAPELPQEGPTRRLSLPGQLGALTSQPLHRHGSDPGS

In order of falling “hERG current change (%, negative = inhibition) at 1uM” value:
1. CSc1ccccc1C(=O)N1CCC(n2nccc2NC(=O)C(C)(C)C)CC1  26.9%
2. COc1ccc(C(=O)NC(=S)N2CCN(c3ccccc3OC)CC2)cc1OC  22.4%
3. CCc1ccc(NC(=O)c2nc(S(=O)(=O)Cc3ccccc3)ncc2Cl)cc1  20.7%
4. OC1(c2cccc(C(F)(F)F)c2)CCN(c2ncnc3c2[nH]c2ccccc23)CC1  17.8%
5. CNC(=O)C(NC(=O)CNC(=O)c1ccc(Cl)cc1)C(C)(C)C (stereo not shown)  17.7%
6. CC1=CC(=Nc2c(C)n(C)n(-c3ccccc3)c2=O)C=C(C)C1=O  16.9%
7. CC1C(=O)C(C)C(c2ccc(O)cc2)NC1c1ccc(O)cc1 (stereo not shown)  16.4%
8. Cc1nnc(SCC(=O)N2c3ccccc3CC2C)[nH]c1=O (stereo not shown)  16%
9. O=C(NCc1ccco1)NC12CC3CC(CC(C3)C1)C2  15.4%
10. O=C(c1ccc2c(c1)OCO2)N1CCOCC1  14.5%
11. CCOC(=O)C(C)(C)N(Cc1cccc(C)c1)S(=O)(=O)c1ccc(Cl)c([N+](=O)[O-])c1  14.4%
12. O=S(=O)(NC(=S)c1ccccc1)c1ccc(Cl)cc1  13.9%
13. Cc1cc(OC(=O)Cc2cccc3ccccc23)c([N+](=O)[O-])c(=O)[nH]1  13.5%
14. CC(=O)NCCNc1nc2c(-c3cccc(C)c3)nnn2c2ccccc12  13.5%
15. Cc1ccc2nc(NCc3ccco3)c(C=NCc3ccco3)c(=O)n2c1  12.8%
16. COC(=O)c1cc(NC(=O)c2cc(-c3ccc(Cl)cc3)oc2C(F)(F)F)ccc1N1CCOCC1  12.5%
17. CC(=O)NCCSCCNC(C)=O  12.2%
18. O=C(COc1ccc(Br)cc1)Nc1cc(S(=O)(=O)N2CCCCC2)ccc1N1CCCCC1  11.7%
19. COc1cc(C(=O)N2CCN(S(=O)(=O)c3cccc(F)c3)CC2)ccc1OCC(=O)N1CCOCC1  11.7%
20. Cc1ccccc1NC(=O)c1nc2nccc(C)n2n1  11.2%
21. Cc1ccc(-c2noc(CCC(=O)NC3CCCC3)n2)cc1  11.1%
22. CCOc1ccc(-n2c(=O)c3c4c(sc3n(CC(=O)NCC3CCCO3)c2=O)CCC4)cc1 (stereo not shown)  11%
23. COc1ccc(Nc2nc(N(C)c3ccccc3)nc(N)c2[N+](=O)[O-])cc1  10.5%
24. CCOc1cc(-c2nc3ccccc3s2)ccc1O  10.3%
25. Cc1cc(C(=O)N[C@H](c2ccccc2)[C@@]2(C)C[C@@H]2[C@@H](C)C(=O)Nc2ccc3ccccc3c2)n(C)n1  10.3%
26. CC1CN(c2nc3ccccc3cc2-c2ccccc2)CC(C)O1 (stereo not shown)  10.3%
27. CCC(Sc1nc2ccc(N)cc2s1)C(=O)Nc1nccs1 (stereo not shown)  9.96%
28. CC(=O)Nc1ccc(C2=NNC(=Nc3ccc(S(=O)(=O)N4CCOCC4)cc3)SC2)cc1  9.84%
29. CC(=O)OC1CCC2(C)C(CCC3C2CC(OC(C)=O)C2(C)C3C[C@@H]3O[C@]4(CC[C@@H](C)CO4)[C@@H](C)C32)C1 (stereo partly shown)  9.69%
30. O=S(=O)(Nc1ccc(Nc2ccccc2)cc1)c1ccc(F)cc1  9.61%
31. CC(C)c1cc(-c2cc(-c3ccc(Cl)cc3)on2)nc(NC2CCCC2)n1  9.56%
32. Cc1ccc(S(=O)(=O)N2CCC(C(=O)OCC(=O)N(C)c3ccccc3)CC2)cc1C  9.41%
33. COc1ccc(C(CC(=O)O)NC(=O)c2ccco2)cc1 (stereo not shown)  9.28%
34. Cc1cc2c(cc1S(=O)(=O)N1CC(C)CC(C)C1)OCC(=O)N2 (stereo not shown)  8.71%
35. O=[N+]([O-])c1cccc(NC(=S)NCc2ccncc2)c1  8.67%
36. COc1ccc([N+](=O)[O-])cc1NC(=O)CSc1ncccn1  8.53%
37. COc1ccc(Cc2nnc(SCC(=O)Nc3ccc(N4CCOCC4)cc3)n2C)cc1  8.08%
38. O=C(NCCNc1nccc(C(F)(F)F)n1)c1cccs1  7.73%
39. O=C(NCc1ccccc1Cl)c1ccc2c(c1)SC1=NS(=O)(=O)CCN12  7.72%
40. Cc1ccc(C(=O)NCC(c2ccco2)N2CCOCC2)cc1 (stereo not shown)  5.57%
41. COc1ccccc1NC(=O)CNC(=O)c1ccc(F)cc1  5.22%
42. NC(=O)c1ccc(NC(=O)CCNC(=O)c2ccco2)cc1  5.05%
43. CC(C(=O)c1c[nH]c2ccccc12)N1CCc2ccccc2C1 (stereo not shown)  5.04%
44. COc1cc(C)c(-c2nc(CN3C[C@@H]4C[C@@H](C3)c3cccc(=O)n3C4)c(C)o2)cc1C  2.53%
45. COCC(=O)NC1CCN(C(=O)Nc2ccc(Br)cc2)CC1  1.87%
46. Cc1ccsc1C(=O)N1CCCC(N2CCN(c3cccc(Cl)c3)CC2)C1 (stereo not shown)  -0.726%
47. O=C(c1cccc(S(=O)(=O)N2CCOCC2)c1)N(CCc1ccccc1)Cc1ccccc1  -1.79%
48. COc1ccc(NC(=O)CN2CCC(NC(=O)C3CCCCC3)CC2)cc1  -3.15%
49. CC1(C)Cc2ccccc2-c2c1c(=O)n(Cc1ccccc1)c1nnnn21  -3.3%
50. NC(=O)C1CCN(C(=O)CSc2nc3c(c(-c4ccccc4)n2)CCCC3)CC1  -3.4%
51. O=C1CC(N2CCN(c3ccccc3)CC2)C(=O)N1Cc1ccc(Cl)cc1 (stereo not shown)  -3.82%
52. COc1ccc(S(=O)(=O)N(C)c2ccc(C(=O)N3CCOCC3)cc2)cc1  -3.94%
53. NC(=O)CSc1nc2ccccc2c(=O)n1Cc1ccco1  -15.1%
54. COC(=O)CCN1CCC(c2cc(-c3cccc(C(F)(F)F)c3)n[nH]2)CC1  -22%
55. Cc1cc(C)c2c(CN3CCN(C)CC3)cc(=O)oc2c1  -48.5%
